Source: patent US11319343B2, “Method of treatment” (ROYAL MELBOURNE INSTITUTE OF TECHNOLOGY, priority 2017, dated 2022)

Tested on: PKC
Test: Cytosolic PKC activity, FRET biosensor cytoCKAR
Settings: WT macrophages treated with Dynasore (100 μM) or bafilomycin A (100 nM)
Method: Cells were plated and transfected in suspension with 200 ng/well FRET biosensor DNA using PEI, in black, optically clear 96-well plates for 48 hr. Prior to the experiment, cells were partially serum-starved overnight in 0.5% v/v FBS media. Fluorescence imaging was performed using a high-content GE Healthcare INCell 2000 Analyzer with a Nikon Plan Fluor ELWD 40× (NA 0.6) objective and FRET module as described (Jensen et al. (2014) The Journal of Biological Chemistry 289(29):20283-20294). For CFP/YFP (CKAR) emission ratio analysis, cells were sequentially excited using a CFP filter (430/24) with emission measured using YFP (535/30) and CFP (470/24) filters, and a polychroic optimized for the CFP/YFP filter pair (Quad3). For GFP/RFP (EKAR) emission ratio analysis, cells were sequentially excited using a FITC filter (490/20) with emission measured using dsRed (605/52) and FITC (525/36) filters, and a polychroic optimized for the FITC/dsRed filter pair (Quad4). Cells were imaged every 100 sec for 20 min (image capture of 2 fields of view in 12 wells per 100 sec). Data were analyzed using in-house scripts written for the FIJI distribution of Image J 34, as described (Halls et al. (2015) supra.

SMILES | cytosolic PKC response to influenza A virus or imiquimod
O=C(N/N=C/c1ccc(O)c(O)c1)c1cc2ccccc2cc1O [Dynasore] | absent
CO/C1=C\C(C)=C\[C@@H](C)[C@@H](O)[C@@H](C)C/C(C)=C/C=C/[C@H](OC)[C@@H]([C@@H](C)[C@@H](O)[C@H](C)[C@@]2(O)C[C@@H](O)[C@H](C)[C@@H](C(C)C)O2)OC1=O [bafilomycin A] | absent
